Assay results reported in patent US11000038B2, “Pyridone compounds and agricultural and horticultural fungicides containing the same as active ingredients” (priority 2017, dated 2021).

Key:
[1] = test system: tomato late blight fungi (Phytophthora infestans); format: in vivo; conditions: spray treatment of tomato plants; control value=100{1-(n/3)}
[2] = test system: cucumber anthracnose fungi (Colletotrichum orbiculare); assay: Test Example H: cucumber anthracnose, spray treatment of cucumber plants; conditions: 250 ppm spray, 2.5 ml/pot, cucumber Sagami Hanjiro; 6 to 10 days from inoculation
[3] = test system: rice blast fungi (Magnaporthe grisea); format: in vivo; conditions: spray treatment of rice plants; control value=100{1-(n/3)}

## CC(=O)c1cn(C(C)C(C)C)c(-c2c(F)cc(F)cc2F)c(Cl)c1=O (stereo not drawn) [Compound 136]
[1]
  Test F control value class (tomato late blight): H (H shows the control value of more than 50%)
[2]
  Test H control value class (cucumber anthracnose): H (H shows the control value of more than 50%)
[3]
  Test A control value class (rice blast): L (L shows the control value of 50% or less)

## CC(C)C(C)n1cc(C(F)(F)F)c(=O)c(Cl)c1-c1c(F)cc(F)cc1F (stereo not drawn) [Compound 137]
[1]
  Test F control value class (tomato late blight): L (L shows the control value of 50% or less)
[2]
  Test H control value class (cucumber anthracnose): L (L shows the control value of 50% or less)
[3]
  Test A control value class (rice blast): L (L shows the control value of 50% or less)

## Cc1cc(-n2cc(Cl)c(=O)c(Cl)c2-c2c(F)cc(F)cc2F)no1 [Compound 138]
[1]
  Test F control value class (tomato late blight): L (L shows the control value of 50% or less)
[2]
  Test H control value class (cucumber anthracnose): H (H shows the control value of more than 50%)
[3]
  Test A control value class (rice blast): H (H shows the control value of more than 50%)

## O=c1c(Br)cn(-c2cccc(Cl)c2)c(-c2c(F)cc(F)cc2F)c1Cl [Compound 139]
[1]
  Test F control value class (tomato late blight): L (L shows the control value of 50% or less)
[2]
  Test H control value class (cucumber anthracnose): H (H shows the control value of more than 50%)
[3]
  Test A control value class (rice blast): H (H shows the control value of more than 50%)

## O=c1c(Br)cn(-c2cccc(Cl)c2)c(-c2c(F)cc(F)cc2F)c1Br [Compound 140]
[1]
  Test F control value class (tomato late blight): L (L shows the control value of 50% or less)
[2]
  Test H control value class (cucumber anthracnose): L (L shows the control value of 50% or less)
[3]
  Test A control value class (rice blast): H (H shows the control value of more than 50%)

## Cc1ccc(C)c(-n2cc(Br)c(=O)c(Cl)c2-c2c(F)cc(F)cc2F)c1 [Compound 143]
[1]
  Test F control value class (tomato late blight): L (L shows the control value of 50% or less)
[2]
  Test H control value class (cucumber anthracnose): H (H shows the control value of more than 50%)
[3]
  Test A control value class (rice blast): H (H shows the control value of more than 50%)

## Cc1ccc(C)c(-n2cc(Br)c(=O)c(Br)c2-c2c(F)cc(F)cc2F)c1 [Compound 144]
[1]
  Test F control value class (tomato late blight): L (L shows the control value of 50% or less)
[2]
  Test H control value class (cucumber anthracnose): H (H shows the control value of more than 50%)
[3]
  Test A control value class (rice blast): H (H shows the control value of more than 50%)

## CCOC(=O)Cn1cc(Cl)c(=O)c(Cl)c1-c1c(F)cc(F)cc1F [Compound 145]
[1]
  Test F control value class (tomato late blight): L (L shows the control value of 50% or less)
[2]
  Test H control value class (cucumber anthracnose): L (L shows the control value of 50% or less)
[3]
  Test A control value class (rice blast): L (L shows the control value of 50% or less)

## Cc1cc(-n2cc(Br)c(=O)c(Br)c2-c2c(F)cc(F)cc2F)no1 [Compound 146]
[1]
  Test F control value class (tomato late blight): L (L shows the control value of 50% or less)
[2]
  Test H control value class (cucumber anthracnose): L (L shows the control value of 50% or less)
[3]
  Test A control value class (rice blast): H (H shows the control value of more than 50%)

## Cc1onc(-n2cc(Br)c(=O)c(Br)c2-c2c(F)cc(F)cc2F)c1Br [Compound 147]
[1]
  Test F control value class (tomato late blight): H (H shows the control value of more than 50%)
[2]
  Test H control value class (cucumber anthracnose): H (H shows the control value of more than 50%)
[3]
  Test A control value class (rice blast): H (H shows the control value of more than 50%)

## Cc1ccc(C)c(-n2cc(Cl)c(=O)c(Br)c2-c2c(F)cc(F)cc2F)c1 [Compound 148]
[1]
  Test F control value class (tomato late blight): L (L shows the control value of 50% or less)
[2]
  Test H control value class (cucumber anthracnose): H (H shows the control value of more than 50%)
[3]
  Test A control value class (rice blast): H (H shows the control value of more than 50%)
